Source: paper PMC7819943, “Rice protein-binding microarrays: a tool to detect cis-acting elements near promoter regions in rice”
The list shows a part of the results.

Target: T1, OsWOX13 (Oryza sativa, UniProt Q5QMM3 1-267)
T1 sequence: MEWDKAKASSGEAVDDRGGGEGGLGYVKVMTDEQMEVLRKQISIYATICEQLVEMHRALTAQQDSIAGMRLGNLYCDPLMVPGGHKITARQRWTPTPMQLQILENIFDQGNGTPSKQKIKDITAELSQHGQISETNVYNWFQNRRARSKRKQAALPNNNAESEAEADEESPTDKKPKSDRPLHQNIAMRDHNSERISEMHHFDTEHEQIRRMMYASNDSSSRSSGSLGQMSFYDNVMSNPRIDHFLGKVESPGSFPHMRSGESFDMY
Assay: protein-binding microarray (RPBM); PBS, 2% BSA, 51.3 ng/ul salmon testes DNA, 50 uM zinc acetate, 200 nM TF, 25 C, 1 h; high values mean tight binding
Conditions: protein: recombinant; tags: N-terminal polyhistidine and DsRed monomer fusion (pET32a); label: CyDye5-dUTP incorporated in the synthesized complementary strand; 3' TTTTT single-stranded linker to array surface; dsDNA, one strand shown
How it was run: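 In PBS with 2% BSA, salmon testes DNA and 50 µM zinc acetate, 200 nM protein was incubated on a custom Agilent array at 25 °C for 1 h and then washed off. The array had been made double-stranded by primer extension with Cy5-dUTP and blocked with 2% BSA. The proteins were transcription factors fused N-terminally to polyhistidine and DsRed, expressed in E. coli BL21-CodonPlus and purified on Ni–NTA. The binding signal is per-feature fluorescence intensity (arbitrary units) from an Axon 4000B scanner.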

Sequence	binding signal
ATTAAAAGAATTGCTGATTGTATTGCCATGTAGGACCAAACGGAGTCACCTAGTGCAG	5540 fluorescence intensity (a.u.)
AATTGGACTGATGATAGAAACAAGTGACTGGTAAGCTGATCGGAGTCACCTAGTGCAG	9880 fluorescence intensity (a.u.)
GGACAATGTAATTAATAATTTAATTGGCTTGAGTTTGTTTCGGAGTCACCTAGTGCAG	25800 fluorescence intensity (a.u.)
TCAAATAAATTGGTTAGAGAACATAGTAAAGAATATGACACGGAGTCACCTAGTGCAG	12900 fluorescence intensity (a.u.)
CTAAACAGTTTGAAGTGGTTTACTGAATGGAAATTCTGTTCGGAGTCACCTAGTGCAG	6830 fluorescence intensity (a.u.)
ATACGAAATAGAAATGATCATTTATTTACCTAAATGCCACCGGAGTCACCTAGTGCAG	3310 fluorescence intensity (a.u.)
ATGCTAATTACGCGCGTCTTCCCACCTTCGCATGGTGGGCCGGAGTCACCTAGTGCAG	24800 fluorescence intensity (a.u.)
ATCATAATTAGCTCGTTCGTTGTCGACATAACTATATCGCCGGAGTCACCTAGTGCAG	33500 fluorescence intensity (a.u.)
AAAGATTATGCTTTATTCTCATAATCAAGAAATAGGATAACGGAGTCACCTAGTGCAG	3520 fluorescence intensity (a.u.)
CCGTAACATAATTTCAGCGGTGGTACGTAGTACGGACGACCGGAGTCACCTAGTGCAG	11100 fluorescence intensity (a.u.)
TCTCACATTATAATCAGGGCTAATTCTCTAGATGGAACCACGGAGTCACCTAGTGCAG	4500 fluorescence intensity (a.u.)
GCTCTATGATTTGACAATGTAGTGCTACAGTAAACATTTGCGGAGTCACCTAGTGCAG	13900 fluorescence intensity (a.u.)
CAACATTGATTACGAGATGCTTTCTAATGGAAAATTATGTCGGAGTCACCTAGTGCAG	36000 fluorescence intensity (a.u.)
AAAACAAATTATAGATTCTACCTGTAAACTGCGAGACGAACGGAGTCACCTAGTGCAG	17200 fluorescence intensity (a.u.)
ATGTTCTTAGATTGATTAAGATTGTCAATTGATTACTCCACGGAGTCACCTAGTGCAG	60500 fluorescence intensity (a.u.)
TCACCACTAATCATGCATCTCTATTCAGAATTTCAGAGCACGGAGTCACCTAGTGCAG	3790 fluorescence intensity (a.u.)
CCATACAAATCTCCGTCCATTAATGAAGAGAAGTCAAGTACGGAGTCACCTAGTGCAG	5390 fluorescence intensity (a.u.)
TCCTGATTTCGCCGCCACTTGTAGCATCTGCCCGTGGGGTCGGAGTCACCTAGTGCAG	5510 fluorescence intensity (a.u.)
TTCGGGATTGAAGTTCCATCTACATGAAAGATGAGTTGCACGGAGTCACCTAGTGCAG	9960 fluorescence intensity (a.u.)
AGAGATTAGCTTCTGTTTTATGGTTCCCTTGTTATATTGGCGGAGTCACCTAGTGCAG	3910 fluorescence intensity (a.u.)
GCGCCCCTTAACTAATTAAAACCGGTCAGTCCTTCGGTGGCGGAGTCACCTAGTGCAG	4340 fluorescence intensity (a.u.)
CCGTGATTAGTTCGGTGCGTGTAAAGGTAGTCTGCAACATCGGAGTCACCTAGTGCAG	35700 fluorescence intensity (a.u.)
TTTATGTGACTGATATTTAGGTCCTACTAACATATTTGACCGGAGTCACCTAGTGCAG	6340 fluorescence intensity (a.u.)
TCTAAAATTAATCATCATCGATGAAAGTGATCGTGTCCAACGGAGTCACCTAGTGCAG	12800 fluorescence intensity (a.u.)
CTTATATTTATCAATCAAAATTTAAAATTTCAACTTTAAACGGAGTCACCTAGTGCAG	20500 fluorescence intensity (a.u.)
CCCATTGTAGCCAATCAAGAACAGAGATCGTAAGAGATTCCGGAGTCACCTAGTGCAG	6760 fluorescence intensity (a.u.)
TTGTATCATTACCTAATTAGAGCTAGCTCTGCCACCACTGCGGAGTCACCTAGTGCAG	4150 fluorescence intensity (a.u.)

Sequence	binding signal
ACCATTAATTAGTATACTGTCCTATCCCCTAACTAAGCCACGGAGTCACCTAGTGCAG	30800 fluorescence intensity (a.u.)
ATATGATCGTATAATTAAATGAGATCATGATTAAGTGGAGCGGAGTCACCTAGTGCAG	16400 fluorescence intensity (a.u.)
ACCAACTTGTGATTTATTATCATGTGGATTATGAAGAGTTCGGAGTCACCTAGTGCAG	9690 fluorescence intensity (a.u.)
TTAAATTACTCATCCGATTTACAATCCGATTACACCGTTGCGGAGTCACCTAGTGCAG	16600 fluorescence intensity (a.u.)
AAGGTACTAAAATTGACATTAAATTTAGGTATCTTTTAAACGGAGTCACCTAGTGCAG	6570 fluorescence intensity (a.u.)
TGTAATTATCATTTATTTTGTTGTGACTTGATTCATCATCCGGAGTCACCTAGTGCAG	19400 fluorescence intensity (a.u.)
GATGATAAAACATGATTAATAATTTATGCGTGACTTATCTCGGAGTCACCTAGTGCAG	25500 fluorescence intensity (a.u.)
GTAATTGTAATCCTCCATACTTGTAAATGTTACTCGAACACGGAGTCACCTAGTGCAG	4020 fluorescence intensity (a.u.)
GTTAACTTTGTTAAATGTATTCTGTTCTGAGGATCCAAATCGGAGTCACCTAGTGCAG	5080 fluorescence intensity (a.u.)
GAAATTAATTAATCAATCGATGCGAACTTTTGCATCTACACGGAGTCACCTAGTGCAG	45100 fluorescence intensity (a.u.)
GGGACTAAATTTAGTCCCTCTCACAAAAGTATAAGTCCCTCGGAGTCACCTAGTGCAG	4600 fluorescence intensity (a.u.)
TTAATAAATTTAGATAGATATATATGTCTAGATTCATTAACGGAGTCACCTAGTGCAG	8700 fluorescence intensity (a.u.)
CAGTTGATGAGATTTGCATCGTGCGATTCTTCTGATTGAGCGGAGTCACCTAGTGCAG	23900 fluorescence intensity (a.u.)
TGGGAAATCATTTTCATTTCCAATTAGCCGAACATTGCATCGGAGTCACCTAGTGCAG	5420 fluorescence intensity (a.u.)
TTGTAACATGTTAATTACTCCATTAGCATGGATAATCAGACGGAGTCACCTAGTGCAG	16500 fluorescence intensity (a.u.)
AACTTTTAAACTGCTAACAATAGATATATAAACTTACCCACGGAGTCACCTAGTGCAG	3640 fluorescence intensity (a.u.)
GAGAATAAAGTGAGTGTGATTGGAGCCTAATAATTGCATTCGGAGTCACCTAGTGCAG	21100 fluorescence intensity (a.u.)
GCTTCAATGATTTCTGATTCTGTTGCTTCTCCCTCCTTCCCGGAGTCACCTAGTGCAG	10400 fluorescence intensity (a.u.)
ATATAATTGTAGTGTAATTACATTGTAACTTACATATAATCGGAGTCACCTAGTGCAG	13800 fluorescence intensity (a.u.)
ATCTGATTTGACAATGGACGTGACGGCCACCCGACCTCTCCGGAGTCACCTAGTGCAG	12900 fluorescence intensity (a.u.)
AACTAATTTCTATATGTTGTTGTAACACGAGTTATACATCCGGAGTCACCTAGTGCAG	5450 fluorescence intensity (a.u.)
TAAGTAATTATTTATTCTTTTCATATCATTTGATTCATTGCGGAGTCACCTAGTGCAG	15400 fluorescence intensity (a.u.)
TGTGATTGTGTTGCTACAAACATCGTAATATTTGAGAAATCGGAGTCACCTAGTGCAG	17800 fluorescence intensity (a.u.)
TAAATTACACGAAGATTAATATGCTACTGAAAATACTCCTCGGAGTCACCTAGTGCAG	5600 fluorescence intensity (a.u.)
TACATGATTTATAAAGTATATATTACAAGTAAACTTATATCGGAGTCACCTAGTGCAG	7980 fluorescence intensity (a.u.)
ACGGTTAATTTTGCATTCAAACAGGGTTCACCAGCTACCCCGGAGTCACCTAGTGCAG	14300 fluorescence intensity (a.u.)
TGGTTTTCCGTTAATTTGCCTATGATCGTTTCCTGCATGCCGGAGTCACCTAGTGCAG	4670 fluorescence intensity (a.u.)
